First the molecules themselves.
B1: UUGCCGG (DNA:RNA)
RNA: GGGAGACCGGAAUUCAGAUUGUCCUUGCCGGUUAAAUCCCGUCGUAGCCACCA
DNA 1: CAATCTGAATTCCGGTCTCCC
DNA 2: TGGTGGCTACGACGGGATT
B2: GUUGUUU (DNA:RNA)
RNA: B1 RNA with U25G, G27U, C28G, C29U, G30U, G31U
DNA 1: CAATCTGAATTCCGGTCTCCC
DNA 2: TGGTGGCTACGACGGGATT
B3: GUUGAGA (DNA:RNA)
RNA: B1 RNA with U25G, G27U, C28G, C29A, G31A
DNA 1: CAATCTGAATTCCGGTCTCCC
DNA 2: TGGTGGCTACGACGGGATT
B4: ACUUGAU (DNA:RNA)
RNA: GGGAGACCGGAAUUCAGAUUGUCCACUUGAUUUAAAUCCCGUCGUAGCCACCA
DNA 1: CAATCTGAATTCCGGTCTCCC
DNA 2: TGGTGGCTACGACGGGATT
B5: UUGAAUG (DNA:RNA)
RNA: B1 RNA with C28A, C29A, G30U
DNA 1: CAATCTGAATTCCGGTCTCCC
DNA 2: TGGTGGCTACGACGGGATT
B6: CACACAA (DNA:RNA)
RNA: B4 RNA with A25C, C26A, U27C, U28A, G29C, U31A
DNA 1: CAATCTGAATTCCGGTCTCCC
DNA 2: TGGTGGCTACGACGGGATT
B7: GGGGGCU (DNA:RNA)
RNA: B4 RNA with A25G, C26G, U27G, U28G, A30C
DNA 1: CAATCTGAATTCCGGTCTCCC
DNA 2: TGGTGGCTACGACGGGATT
B8: UCAGUGA (DNA:RNA)
RNA: B1 RNA with U26C, G27A, C28G, C29U, G31A
DNA 1: CAATCTGAATTCCGGTCTCCC
DNA 2: TGGTGGCTACGACGGGATT
B9: UGGUAAG (DNA:RNA)
RNA: B1 RNA with U26G, C28U, C29A, G30A
DNA 1: CAATCTGAATTCCGGTCTCCC
DNA 2: TGGTGGCTACGACGGGATT
B10: CCCCGUC (DNA:RNA)
RNA: B4 RNA with A25C, U27C, U28C, A30U, U31C
DNA 1: CAATCTGAATTCCGGTCTCCC
DNA 2: TGGTGGCTACGACGGGATT
B11: AUAUACU (DNA:RNA)
RNA: B4 RNA with C26U, U27A, G29A, A30C
DNA 1: CAATCTGAATTCCGGTCTCCC
DNA 2: TGGTGGCTACGACGGGATT
B12: ACGGAAU (DNA:RNA)
RNA: B4 RNA with U27G, U28G, G29A
DNA 1: CAATCTGAATTCCGGTCTCCC
DNA 2: TGGTGGCTACGACGGGATT
B13: CUUACUU (DNA:RNA)
RNA: B4 RNA with A25C, C26U, U28A, G29C, A30U
DNA 1: CAATCTGAATTCCGGTCTCCC
DNA 2: TGGTGGCTACGACGGGATT
B14: GUUCCGA (DNA:RNA)
RNA: B1 RNA with U25G, G27U, G31A
DNA 1: CAATCTGAATTCCGGTCTCCC
DNA 2: TGGTGGCTACGACGGGATT
B15: UAUCCGC (DNA:RNA)
RNA: B1 RNA with U26A, G27U, G31C
DNA 1: CAATCTGAATTCCGGTCTCCC
DNA 2: TGGTGGCTACGACGGGATT
B16: UUGUACU (DNA:RNA)
RNA: B1 RNA with C28U, C29A, G30C, G31U
DNA 1: CAATCTGAATTCCGGTCTCCC
DNA 2: TGGTGGCTACGACGGGATT
B17: UAAUUCA (DNA:RNA)
RNA: B4 RNA with A25U, C26A, U27A, G29U, A30C, U31A
DNA 1: CAATCTGAATTCCGGTCTCCC
DNA 2: TGGTGGCTACGACGGGATT
B18: GAUAAAU (DNA:RNA)
RNA: B4 RNA with A25G, C26A, U28A, G29A
DNA 1: CAATCTGAATTCCGGTCTCCC
DNA 2: TGGTGGCTACGACGGGATT
B19: CGCAGUU (DNA:RNA)
RNA: B4 RNA with A25C, C26G, U27C, U28A, A30U
DNA 1: CAATCTGAATTCCGGTCTCCC
DNA 2: TGGTGGCTACGACGGGATT
B20: GGGCCUU (DNA:RNA)
RNA: B1 RNA with U25G, U26G, G30U, G31U
DNA 1: CAATCTGAATTCCGGTCTCCC
DNA 2: TGGTGGCTACGACGGGATT
B21: UUGACGA (DNA:RNA)
RNA: B1 RNA with C28A, G31A
DNA 1: CAATCTGAATTCCGGTCTCCC
DNA 2: TGGTGGCTACGACGGGATT
B22: AUAUUAU (DNA:RNA)
RNA: B4 RNA with C26U, U27A, G29U
DNA 1: CAATCTGAATTCCGGTCTCCC
DNA 2: TGGTGGCTACGACGGGATT
B23: CGAAUAU (DNA:RNA)
RNA: B4 RNA with A25C, C26G, U27A, U28A, G29U
DNA 1: CAATCTGAATTCCGGTCTCCC
DNA 2: TGGTGGCTACGACGGGATT
B24: AUAGGAC (DNA:RNA)
RNA: B4 RNA with C26U, U27A, U28G, U31C
DNA 1: CAATCTGAATTCCGGTCTCCC
DNA 2: TGGTGGCTACGACGGGATT
B25: UCAUUAA (DNA:RNA)
RNA: B4 RNA with A25U, U27A, G29U, U31A
DNA 1: CAATCTGAATTCCGGTCTCCC
DNA 2: TGGTGGCTACGACGGGATT
B26: UAACAAG (DNA:RNA)
RNA: B1 RNA with U26A, G27A, C29A, G30A
DNA 1: CAATCTGAATTCCGGTCTCCC
DNA 2: TGGTGGCTACGACGGGATT
B27: CGUAAGC (DNA:RNA)
RNA: B4 RNA with A25C, C26G, U28A, G29A, A30G, U31C
DNA 1: CAATCTGAATTCCGGTCTCCC
DNA 2: TGGTGGCTACGACGGGATT
B28: CUAAUUU (DNA:RNA)
RNA: B4 RNA with A25C, C26U, U27A, U28A, G29U, A30U
DNA 1: CAATCTGAATTCCGGTCTCCC
DNA 2: TGGTGGCTACGACGGGATT
B29: GAUCUCA (DNA:RNA)
RNA: B4 RNA with A25G, C26A, U28C, G29U, A30C, U31A
DNA 1: CAATCTGAATTCCGGTCTCCC
DNA 2: TGGTGGCTACGACGGGATT
B30: UAGCAGG (DNA:RNA)
RNA: B1 RNA with U26A, C29A
DNA 1: CAATCTGAATTCCGGTCTCCC
DNA 2: TGGTGGCTACGACGGGATT
B31: GUAAUGG (DNA:RNA)
RNA: B1 RNA with U25G, G27A, C28A, C29U
DNA 1: CAATCTGAATTCCGGTCTCCC
DNA 2: TGGTGGCTACGACGGGATT

Numbering of substitutions follows the chain as printed; changes in the protein carry UniProt numbers. The list shows a part of the results.

In this assay the target is T1, RBFOX1 RRM RbFoxmut (Fox-RRM*) (Homo sapiens, UniProt Q9NWB1 109-208, R118D;E147R;N151S;E152T).
T1 sequence: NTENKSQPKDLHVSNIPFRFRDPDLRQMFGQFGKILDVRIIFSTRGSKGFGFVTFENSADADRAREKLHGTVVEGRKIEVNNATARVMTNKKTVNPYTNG
Nature of the assay: EMSA; HiTS-Eq, 1 nM pool, 10 min; buffer printed only for the single-RNA assays: 10 mM Tris pH 7.5, 150 mM NaCl, 3.4 mM EDTA, 0.001% NP-40, 30 C. The conditions noted are these: tags: His6 N-terminal (pET28a); label: 5' 32P. In outline: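 Purified RbFox RRM (wild type or mutant) was equilibrated for 10 min in 50 µL with 1 nM of a 5′-radiolabelled pool of RNA with 7 randomized nucleotides, its flanks annealed to DNA oligonucleotides, across increasing protein concentrations. Free RNA was separated by 8% native PAGE, excised, reverse-transcribed, PCR-barcoded and sequenced on an Illumina HiSeq 2500. Relative association constants came from read-count changes of each variant against the control reaction, normalised to the cognate motif.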
In general terms: Mobility shift assays separate free from complexed probe on a gel.
Consider B1, for which the binding signal is 0.0823 KA relative to UGCAUGU.
For the molecule B2, the binding signal was 0.0918 KA relative to UGCAUGU.
In the case of B3 it was 0.12 KA relative to UGCAUGU; in that of B4, 0.112 KA relative to UGCAUGU.
Take B5: the binding signal is 1.17 KA relative to UGCAUGU.
For B6 the value was 0.0825 KA relative to UGCAUGU.
For B7 the value was 0.0841 KA relative to UGCAUGU.
In the case of B8 it was 0.0982 KA relative to UGCAUGU; in that of B9, 0.147 KA relative to UGCAUGU.
B10: the binding signal was 0.121 KA relative to UGCAUGU.
In the case of B11 it was 0.124 KA relative to UGCAUGU; in that of B12, 0.115 KA relative to UGCAUGU; in that of B13, 0.101 KA relative to UGCAUGU.
Take B14: the binding signal is 0.106 KA relative to UGCAUGU.
In the case of B15 it was 0.117 KA relative to UGCAUGU; in that of B16, 0.102 KA relative to UGCAUGU.
For B17 the value was 0.104 KA relative to UGCAUGU; for B18, 0.0497 KA relative to UGCAUGU; for B19, 0.0941 KA relative to UGCAUGU.
In the case of B20, the binding signal was 0.0652 KA relative to UGCAUGU.
In the case of B21 it was 0.0482 KA relative to UGCAUGU.
In the case of B22 it was 0.143 KA relative to UGCAUGU.
In the case of B23 it was 0.117 KA relative to UGCAUGU; in that of B24, 0.074 KA relative to UGCAUGU.
For the molecule B25, the binding signal is 0.144 KA relative to UGCAUGU.
In the case of B26 it was 0.052 KA relative to UGCAUGU; in that of B27, 0.097 KA relative to UGCAUGU; in that of B28, 0.0946 KA relative to UGCAUGU.
In the case of B29 it was 0.106 KA relative to UGCAUGU; in that of B30, 0.0972 KA relative to UGCAUGU.
As to B31, the binding signal was 0.0836 KA relative to UGCAUGU.

Values taken from article PMC9911399, “Two distinct binding modes provide the RNA-binding protein RbFox with extraordinary sequence specificity”.
